{"source": "patent US8828401B2", "about": "“Cytotoxic peptides and antibody drug conjugates thereof” (Pfizer Inc., priority 2011, dated 2014)", "key": {"[1]": {"tested_on": "N87 gastric xenografts", "test": "N87 gastric xenografts with anti-Notch ADCs", "assay_type": "in vivo, nude (Nu/Nu) female mice", "conditions": "vc6780 study", "description": "(§1) Humanized anti-Notch antibodies, hu28 and hu75, and rat-human chimeric anti-Notch antibodies, ch28 and ch75, were conjugated to various linker-payload combinations and tested in 37622A1 non-small cell lung cancer (NSCLC), HCC2429 lung cancer, MDA-MB-468 breast cancer and N87 gastric cancer xenograft models. For each model described below the first dose was given on Day 0. The tumors were measured at least once a week and their volume was calculated with the formula: tumor volume (mm^3)=0.5×(tumor width^2)(tumor length). The mean tumor volumes (±S.E.M.) for each treatment group were calculated having a maximum of 10 animals and a minimum of 6 animals to be included.\nSimilar in vivo experiments were performed with the N87 gastric cancer cell line as described above. […] When the tumors reached a volume of 250 to 450 mm^3, the tumors were staged to ensure uniformity of the tumor mass among various treatment groups. The N87 gastric model was dosed intraveneously Q4dx4 with PBS vehicle, humanized anti-Notch ADCs, control huNeg-8.8 ADCs and cisplatin at the doses provided in Tables 16 and 17."}, "[2]": {"tested_on": "37622A1 NSCLC xenografts", "test": "37622A1 NSCLC patient-derived xenografts with anti-Notch ADCs", "assay_type": "in vivo, nude (Nu/Nu) female mice", "conditions": "for tumor volume (mm^3 ± SEM): 10 mg/kg Q4dx4", "description": "as §1\nThe effects of anti-Notch ADCs were examined in immunodeficient mice on the in vivo growth of human tumor xenografts that were established from fragments of freshly resected 37622A1 NSCLC tumors obtained in accordance with appropriate consent procedures (Asterand). The 37622A1 NSCLC patient-derived xenografts were subcutaneously passaged in vivo as fragments from animal to animal in nude (Nu/Nu) female mice. When the tumors reached a volume of 150 to 300 mm^3, they were staged to ensure uniformity of the tumor size among various treatment groups. The 37622A1 NSCLC model was dosed intraveneously four times every four days (Q4dx4) with PBS vehicle, humanized anti-Notch ADCs, control huNeg-8.8 ADCs and cisplatin at the doses provided in Table 11."}}, "data": [{"molecule": "hu28-vc6780 (conjugate) heavy: EVQLVESGGGLVQPGGSLRLSCAASGFTFRDYGMTWVRQAPGKGLEWVAYISSGSNYIYYAEAVKGRFTISRDNAKNSLYLQMNSLRAEDTAVYYCARRGPFVLDAWGQGTLVTVSS[human IgG1 constant region left out] light: DIQMTQSPSSLSASVGDRVTITCKASQSINRYLHWYQQKPGKAPKLLIYNANGLQTGVPSRFSGSGSGTDFTLTISSLQPEDFATYYCLQHNTWPDTFGGGTKVEIKRTVAAPSVFIFPPSDEQLKSGTASVVCLLNNFYPREAKVQWKVDNALQSGNSQESVTEQDSKDSTYSLSSTLTLSKADYEKHKVYACEVTHQGLSSPVTKSFNRGEC", "values": [{"measurement": "tumor volume (mm^3 ± SEM)", "setting": "[1]; Dose 3 mg/kg Q4dx4 iv, DAY 21", "value": "499 ± 34", "unit": "mm^3"}, {"measurement": "tumor volume (mm^3 ± SEM)", "setting": "[1]; Dose 3 mg/kg Q4dx4 iv, DAY 25", "value": "588 ± 40", "unit": "mm^3"}, {"measurement": "tumor volume (mm^3 ± SEM)", "setting": "[1]; Dose 3 mg/kg Q4dx4 iv, DAY 28", "value": "672 ± 48", "unit": "mm^3"}, {"measurement": "tumor volume (mm^3 ± SEM)", "setting": "[1]; Dose 3 mg/kg Q4dx4 iv, DAY 33", "value": "786 ± 65", "unit": "mm^3"}, {"measurement": "tumor volume (mm^3 ± SEM)", "setting": "[1]; Dose 3 mg/kg Q4dx4 iv, DAY 36", "value": "827 ± 69", "unit": "mm^3"}, {"measurement": "tumor volume (mm^3 ± SEM)", "setting": "[1]; Dose 3 mg/kg Q4dx4 iv, DAY 39", "value": "847 ± 77", "unit": "mm^3"}, {"measurement": "tumor volume (mm^3 ± SEM)", "setting": "[1]; Dose 3 mg/kg Q4dx4 iv, DAY 42", "value": "959 ± 81", "unit": "mm^3"}, {"measurement": "tumor volume (mm^3 ± SEM)", "setting": "[1]; Dose 3 mg/kg Q4dx4 iv, DAY 46", "value": "1018 ± 94", "unit": "mm^3"}, {"measurement": "tumor volume (mm^3 ± SEM)", "setting": "[1]; Dose 3 mg/kg Q4dx4 iv, DAY 50", "value": "1111 ± 95", "unit": "mm^3"}, {"measurement": "tumor volume (mm^3 ± SEM)", "setting": "[1]; Dose 3 mg/kg Q4dx4 iv, DAY 56", "value": "1279 ± 108", "unit": "mm^3"}, {"measurement": "tumor volume (mm^3 ± SEM)", "setting": "[1]; Dose 3 mg/kg Q4dx4 iv, DAY 63", "value": "1368 ± 133", "unit": "mm^3"}, {"measurement": "tumor volume (mm^3 ± SEM)", "setting": "[1]; Dose 3 mg/kg Q4dx4 iv, DAY 70", "value": "1483 ± 154", "unit": "mm^3"}, {"measurement": "tumor volume (mm^3 ± SEM)", "setting": "[1]; Dose 10 mg/kg Q4dx4 iv, DAY 0", "value": "350 ± 14", "unit": "mm^3"}, {"measurement": "tumor volume (mm^3 ± SEM)", "setting": "[1]; Dose 10 mg/kg Q4dx4 iv, DAY 4", "value": "434 ± 24", "unit": "mm^3"}, {"measurement": "tumor volume (mm^3 ± SEM)", "setting": "[1]; Dose 10 mg/kg Q4dx4 iv, DAY 8", "value": "379 ± 12", "unit": "mm^3"}, {"measurement": "tumor volume (mm^3 ± SEM)", "setting": "[1]; Dose 10 mg/kg Q4dx4 iv, DAY 11", "value": "315 ± 18", "unit": "mm^3"}, {"measurement": "tumor volume (mm^3 ± SEM)", "setting": "[1]; Dose 10 mg/kg Q4dx4 iv, DAY 14", "value": "292 ± 24", "unit": "mm^3"}, {"measurement": "tumor volume (mm^3 ± SEM)", "setting": "[1]; Dose 10 mg/kg Q4dx4 iv, DAY 18", "value": "199 ± 18", "unit": "mm^3"}, {"measurement": "tumor volume (mm^3 ± SEM)", "setting": "[1]; Dose 10 mg/kg Q4dx4 iv, DAY 21", "value": "194 ± 20", "unit": "mm^3"}, {"measurement": "tumor volume (mm^3 ± SEM)", "setting": "[1]; Dose 10 mg/kg Q4dx4 iv, DAY 25", "value": "181 ± 21", "unit": "mm^3"}, {"measurement": "tumor volume (mm^3 ± SEM)", "setting": "[1]; Dose 10 mg/kg Q4dx4 iv, DAY 28", "value": "204 ± 16", "unit": "mm^3"}, {"measurement": "tumor volume (mm^3 ± SEM)", "setting": "[1]; Dose 10 mg/kg Q4dx4 iv, DAY 33", "value": "196 ± 27", "unit": "mm^3"}, {"measurement": "tumor volume (mm^3 ± SEM)", "setting": "[1]; Dose 10 mg/kg Q4dx4 iv, DAY 36", "value": "189 ± 37", "unit": "mm^3"}, {"measurement": "tumor volume (mm^3 ± SEM)", "setting": "[1]; Dose 10 mg/kg Q4dx4 iv, DAY 39", "value": "228 ± 44", "unit": "mm^3"}, {"measurement": "tumor volume (mm^3 ± SEM)", "setting": "[1]; Dose 10 mg/kg Q4dx4 iv, DAY 42", "value": "257 ± 60", "unit": "mm^3"}, {"measurement": "tumor volume (mm^3 ± SEM)", "setting": "[1]; Dose 10 mg/kg Q4dx4 iv, DAY 46", "value": "253 ± 59", "unit": "mm^3"}, {"measurement": "tumor volume (mm^3 ± SEM)", "setting": "[1]; Dose 10 mg/kg Q4dx4 iv, DAY 50", "value": "253 ± 67", "unit": "mm^3"}, {"measurement": "tumor volume (mm^3 ± SEM)", "setting": "[1]; Dose 10 mg/kg Q4dx4 iv, DAY 56", "value": "298 ± 85", "unit": "mm^3"}, {"measurement": "tumor volume (mm^3 ± SEM)", "setting": "[1]; Dose 10 mg/kg Q4dx4 iv, DAY 63", "value": "345 ± 93", "unit": "mm^3"}, {"measurement": "tumor volume (mm^3 ± SEM)", "setting": "[1]; Dose 10 mg/kg Q4dx4 iv, DAY 70", "value": "376 ± 117", "unit": "mm^3"}, {"measurement": "tumor volume (mm^3 ± SEM)", "setting": "[1]; Dose 10 mg/kg Q4dx4 iv, DAY 77", "value": "388 ± 123", "unit": "mm^3"}, {"measurement": "tumor volume (mm^3 ± SEM)", "setting": "[2]; DAY 4", "value": "176 ± 13", "unit": "mm^3"}, {"measurement": "tumor volume (mm^3 ± SEM)", "setting": "[2]; DAY 7", "value": "176 ± 19", "unit": "mm^3"}, {"measurement": "tumor volume (mm^3 ± SEM)", "setting": "[2]; DAY 11", "value": "122 ± 10", "unit": "mm^3"}, {"measurement": "tumor volume (mm^3 ± SEM)", "setting": "[2]; DAY 14", "value": "95 ± 7", "unit": "mm^3"}, {"measurement": "tumor volume (mm^3 ± SEM)", "setting": "[2]; DAY 18", "value": "65 ± 6", "unit": "mm^3"}, {"measurement": "tumor volume (mm^3 ± SEM)", "setting": "[2]; DAY 21", "value": "56 ± 6", "unit": "mm^3"}, {"measurement": "tumor volume (mm^3 ± SEM)", "setting": "[2]; DAY 25", "value": "51 ± 6", "unit": "mm^3"}, {"measurement": "tumor volume (mm^3 ± SEM)", "setting": "[2]; DAY 28", "value": "51 ± 8", "unit": "mm^3"}, {"measurement": "tumor volume (mm^3 ± SEM)", "setting": "[2]; DAY 32", "value": "72 ± 15", "unit": "mm^3"}, {"measurement": "tumor volume (mm^3 ± SEM)", "setting": "[2]; DAY 35", "value": "92 ± 21", "unit": "mm^3"}, {"measurement": "tumor volume (mm^3 ± SEM)", "setting": "[2]; DAY 39", "value": "120 ± 31", "unit": "mm^3"}, {"measurement": "tumor volume (mm^3 ± SEM)", "setting": "[2]; DAY 42", "value": "151 ± 37", "unit": "mm^3"}, {"measurement": "tumor volume (mm^3 ± SEM)", "setting": "[2]; DAY 46", "value": "172 ± 47", "unit": "mm^3"}, {"measurement": "tumor volume (mm^3 ± SEM)", "setting": "[2]; DAY 49", "value": "248 ± 62", "unit": "mm^3"}, {"measurement": "tumor volume (mm^3 ± SEM)", "setting": "[2]; DAY 53", "value": "339 ± 93", "unit": "mm^3"}, {"measurement": "tumor volume (mm^3 ± SEM)", "setting": "[2]; DAY 56", "value": "376 ± 100", "unit": "mm^3"}, {"measurement": "tumor volume (mm^3 ± SEM)", "setting": "[2]; DAY 60", "value": "503 ± 138", "unit": "mm^3"}, {"measurement": "tumor volume (mm^3 ± SEM)", "setting": "[2]; DAY 63", "value": "604 ± 160", "unit": "mm^3"}, {"measurement": "tumor volume (mm^3 ± SEM)", "setting": "[2]; DAY 67", "value": "888 ± 272", "unit": "mm^3"}, {"measurement": "tumor volume (mm^3 ± SEM)", "setting": "[2]; DAY 70", "value": "773 ± 235", "unit": "mm^3"}, {"measurement": "tumor volume (mm^3 ± SEM)", "setting": "[2]; DAY 74", "value": "881 ± 264", "unit": "mm^3"}, {"measurement": "tumor volume (mm^3 ± SEM)", "setting": "[2]; DAY 77", "value": "1029 ± 325", "unit": "mm^3"}, {"measurement": "tumor volume (mm^3 ± SEM)", "setting": "[2]; DAY −1", "value": "182 ± 16", "unit": "mm^3"}, {"measurement": "effect on growth of 37622A1 NSCLC xenografts (in words)", "setting": "[2]; Q4dx4, doses of Table 11", "value": "inhibited growth of 37622A1 NSCLC xenografts"}]}]}
